From patent publication US8828401B2, “Cytotoxic peptides and antibody drug conjugates thereof” (Pfizer Inc., priority 2011, dated 2014)

Columns and labels:
HCC2429 lung xenografts = HCC2429 lung xenografts with anti-Notch ADCs; format: in vivo, nude (Nu/Nu) female mice
Method: (§1) Humanized anti-Notch antibodies, hu28 and hu75, and rat-human chimeric anti-Notch antibodies, ch28 and ch75, were conjugated to various linker-payload combinations and tested in 37622A1 non-small cell lung cancer (NSCLC), HCC2429 lung cancer, MDA-MB-468 breast cancer and N87 gastric cancer xenograft models. For each model described below the first dose was given on Day 0. The tumors were measured at least once a week and their volume was calculated with the formula: tumor volume (mm^3)=0.5×(tumor width^2)(tumor length). The mean tumor volumes (±S.E.M.) for each treatment group were calculated having a maximum of 10 animals and a minimum of 6 animals to be included.
Similar in vivo experiments were performed with the HCC2429 lung cancer cell line as described above. […] When the tumors reached a volume of 200 to 400 mm^3, the tumors were staged to ensure uniformity of the tumor mass among various treatment groups. The HCC2429 lung model was dosed intraveneously Q4dx4 with PBS vehicle, humanized anti-Notch ADCs and control huNeg-8.8 ADCs at the doses provided in Tables 12 and 13.

N87 gastric xenografts = N87 gastric xenografts with anti-Notch ADCs; format: in vivo, nude (Nu/Nu) female mice; settings: for tumor volume (mm^3 ± SEM): vc6780 study
Method: as §1
Similar in vivo experiments were performed with the N87 gastric cancer cell line as described above. […] When the tumors reached a volume of 250 to 450 mm^3, the tumors were staged to ensure uniformity of the tumor mass among various treatment groups. The N87 gastric model was dosed intraveneously Q4dx4 with PBS vehicle, humanized anti-Notch ADCs, control huNeg-8.8 ADCs and cisplatin at the doses provided in Tables 16 and 17.

B1: hu28-vc6780 (conjugate)
heavy: EVQLVESGGGLVQPGGSLRLSCAASGFTFRDYGMTWVRQAPGKGLEWVAYISSGSNYIYYAEAVKGRFTISRDNAKNSLYLQMNSLRAEDTAVYYCARRGPFVLDAWGQGTLVTVSS[human IgG1 constant region left out]
light: DIQMTQSPSSLSASVGDRVTITCKASQSINRYLHWYQQKPGKAPKLLIYNANGLQTGVPSRFSGSGSGTDFTLTISSLQPEDFATYYCLQHNTWPDTFGGGTKVEIKRTVAAPSVFIFPPSDEQLKSGTASVVCLLNNFYPREAKVQWKVDNALQSGNSQESVTEQDSKDSTYSLSSTLTLSKADYEKHKVYACEVTHQGLSSPVTKSFNRGEC
tumor volume (mm^3 ± SEM) (HCC2429 lung xenografts; 10 mg/kg Q4dx4, DAY 1): 369 ± 31 mm^3 | tumor volume (mm^3 ± SEM) (HCC2429 lung xenografts; 10 mg/kg Q4dx4, DAY 3): 318 ± 31 mm^3 | tumor volume (mm^3 ± SEM) (HCC2429 lung xenografts; 10 mg/kg Q4dx4, DAY 5): 228 ± 28 mm^3 | tumor volume (mm^3 ± SEM) (HCC2429 lung xenografts; 10 mg/kg Q4dx4, DAY 7): 172 ± 22 mm^3 | tumor volume (mm^3 ± SEM) (HCC2429 lung xenografts; 10 mg/kg Q4dx4, DAY 10): 143 ± 22 mm^3 | tumor volume (mm^3 ± SEM) (HCC2429 lung xenografts; 10 mg/kg Q4dx4, DAY 12): 134 ± 20 mm^3 | tumor volume (mm^3 ± SEM) (HCC2429 lung xenografts; 10 mg/kg Q4dx4, DAY 14): 115 ± 16 mm^3 | tumor volume (mm^3 ± SEM) (HCC2429 lung xenografts; 10 mg/kg Q4dx4, DAY 17): 127 ± 18 mm^3 | tumor volume (mm^3 ± SEM) (HCC2429 lung xenografts; 10 mg/kg Q4dx4, DAY 20): 149 ± 27 mm^3 | tumor volume (mm^3 ± SEM) (HCC2429 lung xenografts; 10 mg/kg Q4dx4, DAY 24): 206 ± 60 mm^3 | tumor volume (mm^3 ± SEM) (HCC2429 lung xenografts; 10 mg/kg Q4dx4, DAY 27): 290 ± 100 mm^3 | tumor volume (mm^3 ± SEM) (HCC2429 lung xenografts; 10 mg/kg Q4dx4, DAY 31): 378 ± 150 mm^3 | tumor volume (mm^3 ± SEM) (HCC2429 lung xenografts; 10 mg/kg Q4dx4, DAY 34): 551 ± 244 mm^3 | tumor volume (mm^3 ± SEM) (HCC2429 lung xenografts; 10 mg/kg Q4dx4, DAY 38): 718 ± 332 mm^3 | tumor volume (mm^3 ± SEM) (HCC2429 lung xenografts; 10 mg/kg Q4dx4, DAY 42): 1011 ± 504 mm^3 | tumor volume (mm^3 ± SEM) (HCC2429 lung xenografts; 10 mg/kg Q4dx4, DAY −1): 244 ± 22 mm^3 | effect on growth of HCC2429 lung xenografts (in words) (HCC2429 lung xenografts; humanized ADCs, Q4dx4, doses of Tables 12 and 13): inhibited growth of HCC2429 lung xenografts in a dose-dependent manner | tumor volume (mm^3 ± SEM) (HCC2429 lung xenografts; vc6780 study, 1 mg/kg Q4dx4, DAY 1): 400 ± 66 mm^3 | tumor volume (mm^3 ± SEM) (HCC2429 lung xenografts; vc6780 study, 1 mg/kg Q4dx4, DAY 3): 579 ± 113 mm^3 | tumor volume (mm^3 ± SEM) (HCC2429 lung xenografts; vc6780 study, 1 mg/kg Q4dx4, DAY 5): 826 ± 191 mm^3 | tumor volume (mm^3 ± SEM) (HCC2429 lung xenografts; vc6780 study, 1 mg/kg Q4dx4, DAY 7): 1023 ± 259 mm^3 | tumor volume (mm^3 ± SEM) (HCC2429 lung xenografts; vc6780 study, 1 mg/kg Q4dx4, DAY 10): 1439 ± 398 mm^3 | tumor volume (mm^3 ± SEM) (HCC2429 lung xenografts; vc6780 study, 1 mg/kg Q4dx4, DAY 12): 1442 ± 487 mm^3 | tumor volume (mm^3 ± SEM) (HCC2429 lung xenografts; vc6780 study, 1 mg/kg Q4dx4, DAY −1): 245 ± 27 mm^3 | tumor volume (mm^3 ± SEM) (HCC2429 lung xenografts; vc6780 study, 3 mg/kg Q4dx4, DAY 1): 379 ± 45 mm^3 | tumor volume (mm^3 ± SEM) (HCC2429 lung xenografts; vc6780 study, 3 mg/kg Q4dx4, DAY 3): 493 ± 65 mm^3 | tumor volume (mm^3 ± SEM) (HCC2429 lung xenografts; vc6780 study, 3 mg/kg Q4dx4, DAY 5): 609 ± 82 mm^3 | tumor volume (mm^3 ± SEM) (HCC2429 lung xenografts; vc6780 study, 3 mg/kg Q4dx4, DAY 7): 638 ± 86 mm^3 | tumor volume (mm^3 ± SEM) (HCC2429 lung xenografts; vc6780 study, 3 mg/kg Q4dx4, DAY 10): 784 ± 115 mm^3 | tumor volume (mm^3 ± SEM) (HCC2429 lung xenografts; vc6780 study, 3 mg/kg Q4dx4, DAY 12): 883 ± 132 mm^3 | tumor volume (mm^3 ± SEM) (HCC2429 lung xenografts; vc6780 study, 3 mg/kg Q4dx4, DAY 14): 895 ± 175 mm^3 | tumor volume (mm^3 ± SEM) (HCC2429 lung xenografts; vc6780 study, 3 mg/kg Q4dx4, DAY 17): 1105 ± 253 mm^3 | tumor volume (mm^3 ± SEM) (HCC2429 lung xenografts; vc6780 study, 3 mg/kg Q4dx4, DAY 20): 1219 ± 311 mm^3 | tumor volume (mm^3 ± SEM) (HCC2429 lung xenografts; vc6780 study, 3 mg/kg Q4dx4, DAY 24): 1618 ± 468 mm^3 | tumor volume (mm^3 ± SEM) (HCC2429 lung xenografts; vc6780 study, 3 mg/kg Q4dx4, DAY −1): 245 ± 24 mm^3 | effect on growth of N87 gastric xenografts (in words) (N87 gastric xenografts; humanized ADCs, Q4dx4, doses of Tables 16 and 17): inhibited growth of N87 gastric xenografts in a dose-dependent manner | tumor volume (mm^3 ± SEM) (N87 gastric xenografts; Dose 1 mg/kg Q4dx4 iv, DAY 0): 348 ± 13 mm^3 | tumor volume (mm^3 ± SEM) (N87 gastric xenografts; Dose 1 mg/kg Q4dx4 iv, DAY 4): 560 ± 26 mm^3 | tumor volume (mm^3 ± SEM) (N87 gastric xenografts; Dose 1 mg/kg Q4dx4 iv, DAY 8): 592 ± 44 mm^3 | tumor volume (mm^3 ± SEM) (N87 gastric xenografts; Dose 1 mg/kg Q4dx4 iv, DAY 11): 617 ± 48 mm^3 | tumor volume (mm^3 ± SEM) (N87 gastric xenografts; Dose 1 mg/kg Q4dx4 iv, DAY 14): 782 ± 60 mm^3 | tumor volume (mm^3 ± SEM) (N87 gastric xenografts; Dose 1 mg/kg Q4dx4 iv, DAY 18): 797 ± 88 mm^3 | tumor volume (mm^3 ± SEM) (N87 gastric xenografts; Dose 1 mg/kg Q4dx4 iv, DAY 21): 839 ± 93 mm^3 | tumor volume (mm^3 ± SEM) (N87 gastric xenografts; Dose 1 mg/kg Q4dx4 iv, DAY 25): 878 ± 105 mm^3 | tumor volume (mm^3 ± SEM) (N87 gastric xenografts; Dose 1 mg/kg Q4dx4 iv, DAY 28): 904 ± 123 mm^3 | tumor volume (mm^3 ± SEM) (N87 gastric xenografts; Dose 1 mg/kg Q4dx4 iv, DAY 33): 1043 ± 152 mm^3 | tumor volume (mm^3 ± SEM) (N87 gastric xenografts; Dose 1 mg/kg Q4dx4 iv, DAY 36): 1108 ± 185 mm^3 | tumor volume (mm^3 ± SEM) (N87 gastric xenografts; Dose 1 mg/kg Q4dx4 iv, DAY 39): 1204 ± 209 mm^3 | tumor volume (mm^3 ± SEM) (N87 gastric xenografts; Dose 3 mg/kg Q4dx4 iv, DAY 0): 349 ± 10 mm^3 | tumor volume (mm^3 ± SEM) (N87 gastric xenografts; Dose 3 mg/kg Q4dx4 iv, DAY 4): 552 ± 24 mm^3 | tumor volume (mm^3 ± SEM) (N87 gastric xenografts; Dose 3 mg/kg Q4dx4 iv, DAY 8): 545 ± 37 mm^3 | tumor volume (mm^3 ± SEM) (N87 gastric xenografts; Dose 3 mg/kg Q4dx4 iv, DAY 11): 511 ± 25 mm^3 | tumor volume (mm^3 ± SEM) (N87 gastric xenografts; Dose 3 mg/kg Q4dx4 iv, DAY 14): 564 ± 29 mm^3 | tumor volume (mm^3 ± SEM) (N87 gastric xenografts; Dose 3 mg/kg Q4dx4 iv, DAY 18): 479 ± 29 mm^3
